Test results taken from article PMC7673117.
These are yes or no findings as the source states them, for the method shown. Some results given as binding are weak or reduced against the parent protein; the word gives no strength.

Amino acid sequences for entries named in this document (tags omitted). Residues count along the entry.
UniProt P13747, residues 22-358: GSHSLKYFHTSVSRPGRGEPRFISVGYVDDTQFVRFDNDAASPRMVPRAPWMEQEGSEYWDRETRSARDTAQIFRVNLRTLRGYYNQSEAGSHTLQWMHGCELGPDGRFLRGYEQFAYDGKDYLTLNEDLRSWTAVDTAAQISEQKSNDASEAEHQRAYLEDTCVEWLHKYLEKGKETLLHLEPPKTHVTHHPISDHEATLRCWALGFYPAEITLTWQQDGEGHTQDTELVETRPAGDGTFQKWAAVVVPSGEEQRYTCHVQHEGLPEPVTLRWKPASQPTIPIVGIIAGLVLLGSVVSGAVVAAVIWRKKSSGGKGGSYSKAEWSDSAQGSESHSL

What follows are binders tested against human leukocyte antigen (HLA)-E on 721.174 cells (human (endogenous in 721.174 cells)) (UniProt P13747) (assay: flow cytometry on cells; HLA-E surface stabilisation: TAP-deficient 721.174 cells incubated overnight at 26 °C, 5% CO2 in R10 medium with 0–200 μM peptide (200 µM in the screen), stained with anti-HLA-E-PE (clone 3D12); binders defined by an MFI greater than the mean plus 1.5 standard deviations of the No Peptide condition; only the binder purified).

Row | Binder | binding
1 | GCDPHLPTL [LMP1 peptide variant … (GCD)] | no binding (tested: 0–200 μM)
2 | SQAPLPCVL [BZLF1 peptide from an EBV lytic protein] | binds
3 | GGDPHVPTL [LMP1 peptide variant … (GGD_VP)] | binds
4 | GDDPHLPTL [LMP1 peptide variant … (GDD)] | no binding (tested: 0–200 μM)
